In PubChem BioAssay AID360 (National Center for Advancing Translational Sciences (NCATS), 2006):
The whole screen tested about 48,000 compounds, of which about 550 (1.1%) were called active. Roughly 4% stayed inconclusive and do not appear here. Rule as the data show it: active = potency below about 15 µM; inconclusive = mostly about 16 µM to 33 µM; inactive = weaker than that. This is one part of the list.

The compounds below were run against Lysosomal acid glucosylceramidase (Homo sapiens) (UniProt P04062) (assay: Glucocerebrosidase). Conditions: purified enzyme, resorufin glucoside fluorescence (screen aimed at inhibitors), 20 min; series mostly up to 77 µM.
Chain of UniProt P04062 (P04062 whole entry, looked up): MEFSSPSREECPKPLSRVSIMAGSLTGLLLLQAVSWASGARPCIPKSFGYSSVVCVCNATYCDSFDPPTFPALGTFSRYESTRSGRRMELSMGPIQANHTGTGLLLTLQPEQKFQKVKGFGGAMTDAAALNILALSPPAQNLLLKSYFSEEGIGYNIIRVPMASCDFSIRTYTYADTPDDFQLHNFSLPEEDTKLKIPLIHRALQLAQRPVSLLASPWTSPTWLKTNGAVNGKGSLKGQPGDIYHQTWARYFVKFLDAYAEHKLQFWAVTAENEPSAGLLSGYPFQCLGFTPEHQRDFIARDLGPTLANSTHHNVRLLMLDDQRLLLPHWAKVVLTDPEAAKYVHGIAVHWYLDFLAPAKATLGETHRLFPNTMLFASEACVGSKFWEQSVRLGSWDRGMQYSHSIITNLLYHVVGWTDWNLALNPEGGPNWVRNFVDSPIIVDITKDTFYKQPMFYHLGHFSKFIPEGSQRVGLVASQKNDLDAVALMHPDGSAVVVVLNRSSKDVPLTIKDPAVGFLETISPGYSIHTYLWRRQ
Procedure, shortened: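 Normal human glucocerebrosidase (0.2 nM final) was assayed with resorufin β-D-glucopyranoside (30 uM final) in 50mM citric acid/KH2PO4, 10mM sodium taurocholate, 0.01% tween-20, pH 5.9. Compounds were titrated; fluorescence (Ex 548, Em 600) read after 20 min at RT.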
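Also: the screen sought inhibitors.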
Potency is read from the fitted curve at half-maximal effect.

Potency, active:
Cc1[nH]n2c(=O)c3c(nc2c1-c1ccccc1)CCC3 9.49 µM

Potency, inactive:
COc1cc(NC(=O)c2noc3c2CCCC3)c(OC)cc1Cl > 76.9 µM
O=C(OCN1C(=O)c2ccccc2C1=O)c1ccccc1 > 76.9 µM
O=C(COc1ccc(Cl)cc1Cl)N(Cc1ccco1)C1CCS(=O)(=O)C1 (stereo not given) > 76.9 µM
CCCCNC(=O)CCCn1c(=O)c2ccccc2n(CC(=O)NCCC2=CCCCC2)c1=O > 76.9 µM
Cc1ccc(/C(C#N)=C\c2cn(C)c3ccccc23)cc1 > 76.9 µM
CCCCn1c(SCC(=O)N2CCN(c3ccccc3)CC2)nc2ccsc2c1=O > 76.9 µM
CC(C)NC(=O)c1c(O)c2ccccc2[nH]c1=O > 76.9 µM
COc1ccc(OCc2cccc(C(=O)N3CCCC3)c2)cc1 > 76.9 µM
CCn1c2ccccc2c2nnc(SCC(=O)NC(C(=O)OC)C(C)C)nc21 (stereo not given) > 76.9 µM
Cc1ccc(-n2c(SCC(=O)Nc3ccc4c(c3)OCCO4)nnc2-c2ccco2)cc1 > 76.9 µM
O=C(C1CC2CCC1C2)N1CCN(Cc2ccc3c(c2)OCO3)CC1 (stereo not given) > 76.9 µM
COC(=O)c1[nH]c2c(c1C)C(=O)CC(c1ccccc1)C2 (stereo not given) > 76.9 µM
Cc1cc2oc(=O)c3c(c2cc1OCc1nn[nH]n1)CCCC3 > 76.9 µM
Cc1c(C2OC(=O)C3(CCCCC3)C(=O)C2(C)C)c(=O)n(-c2ccccc2)n1C (stereo not given) > 76.9 µM
COc1ccc(N(C)C(=O)Nc2ccc3c(c2)nnn3C)cc1 > 76.9 µM
CCOC(=O)c1ccc(N2C(=O)C(O)=C(C(C)=O)C2c2ccccn2)cc1 (stereo not given) > 76.9 µM
CC(C)(C)NC(=O)CSc1n[nH]c(=O)n1-c1ccccc1 > 76.9 µM
Cc1cc(=O)n2nc(-c3ccccc3)sc2n1 > 76.9 µM
OC(CNCC1COc2ccccc2O1)COCc1cccs1 (stereo not given) > 76.9 µM
Cc1nnc(C)n1/N=C/c1cccc(Oc2ccccc2)c1 > 76.9 µM
CC(C)CC(NC(N)=O)C(=O)OCC(=O)NC(=O)NC1CCCC1 (stereo not given) > 76.9 µM
COC(=O)Nc1ccc2c(c1)N(C(=O)CCN1CCOCC1)c1ccccc1S2
CN(C)c1ccc(-c2noc(C3CCN(S(=O)(=O)c4ccc(C(=O)O)cc4)CC3)n2)cc1 > 76.9 µM
Cc1ccc2nc(NC(=O)CN3CCOCC3)sc2c1 > 76.9 µM
CN(C)c1ccc(C(=S)N2CCN(c3ccccc3)CC2)cc1 > 76.9 µM
COc1ccc(C(=O)N(Cc2ccc(N(C)C)cc2)C2CCS(=O)(=O)C2)cc1 (stereo not given) > 76.9 µM
COc1ccc(CC2NCCC3(O)CCCCC23)cc1 (stereo not given) > 76.9 µM
O=C(O)c1cccc(COCC(F)(F)C(F)F)c1 > 76.9 µM
COC(=O)C1=C(CSc2nnnn2C)NC(=O)NC1c1cc(C)ccc1C (stereo not given) > 76.9 µM
Cc1ccc(CCN2CC(C(=O)NCCCN(C)Cc3ccccc3)CC2=O)cc1 (stereo not given) > 76.9 µM
CC(C)(C)c1ccc(OCC(=O)NC2CCS(=O)(=O)C2)cc1 (stereo not given) > 76.9 µM
O=C(O)C1CCCN1C(=O)Nc1ccccc1 (stereo not given) > 76.9 µM
c1ccc(OCCSc2nnc3sc4ccccc4n23)cc1 > 76.9 µM
Cc1ccc2[nH]c(=O)c(CN(CCc3ccccc3)Cc3nnnn3CC3CCCO3)cc2c1 (stereo not given) > 76.9 µM
Cc1cc(NC(=O)CSc2nnc(CNc3ccc(F)cc3)n2C2CCCCC2)no1 > 76.9 µM
COc1cc(OC)c(NC2=NCCCCC2)cc1Cl > 76.9 µM
Cc1nc(NC(=O)CSc2nnnn2Cc2ccccc2)sc1C > 76.9 µM
COc1cccc(N2C(=O)N(c3ccccc3Cl)C3CS(=O)(=O)CC32)c1 (stereo not given) > 76.9 µM
CCOC(=O)N1CCN(S(=O)(=O)c2ccc3c(c2)CCN3C(=O)CC)CC1 > 76.9 µM
COCCN(C(=O)C1CC1)c1nnc(-c2cccc(C)c2)s1 > 76.9 µM
COC(=O)CS(=O)(=O)c1cc(Br)cc2c1N(C(C)=O)CC2 > 76.9 µM
CCOC(=O)c1cc2cc(-c3c(C(=O)OCC)oc4cc(O)cc(O)c4c3=O)ccc2o1 > 76.9 µM
CCOC(=O)C1CCCN(CC(=O)Nc2c(F)c(F)c(F)c(F)c2F)C1 (stereo not given) > 76.9 µM
CCc1ccc2[nH]c(=O)c(C(c3nnnn3Cc3ccccc3)N3CCOCC3)cc2c1 (stereo not given) > 76.9 µM
O=C(Nc1ccc2c(c1)OCO2)N1CCN(c2cccc(C(F)(F)F)c2)CC1 > 76.9 µM
C=CCn1c(COc2ccc(CC)cc2)nnc1SCC(=O)N(C)C1CCS(=O)(=O)C1 (stereo not given) > 76.9 µM
COC(=O)CCC(=O)Nc1ccc(Cl)c(Cl)c1 > 76.9 µM
COc1cc(C2NC(=O)c3ccccc3O2)cc(OC)c1OC (stereo not given) > 76.9 µM
Cc1cc(=O)cc(C)[nH]1 > 76.9 µM
Cc1ccc(Cl)cc1NC(=O)CSc1nnc(C)n1-c1ccccc1 > 76.9 µM
COC(=O)c1[nH]c2ccccc2c1NC(=O)CCN1CCN(C2CCCCC2)CC1 > 76.9 µM
O=C(Nc1cccc(O)c1)c1cccc(S(=O)(=O)N2CCCC2)c1 > 76.9 µM
O=C(CSc1ccc2nnc(-c3cccc(F)c3)n2n1)NCC1CCCO1 (stereo not given) > 76.9 µM
CCOC(=O)c1cc(CN2CCOCC2)oc1-c1ccccc1 > 76.9 µM
COc1ccc(O)c(C(=O)c2cnn(C(=O)c3cc(C)oc3C)c2)c1 > 76.9 µM
C=CCSc1nnc(NC(=O)c2cccc(S(=O)(=O)N3CCOCC3)c2)s1 > 76.9 µM
CC(=O)c1c(COC(=O)c2ccncc2)nc2ccccc2[n+]1[O-] > 76.9 µM
COc1ccc(N2CCn3c2nc2c3c(=O)n(CCCc3ccccc3)c(=O)n2C)cc1 > 76.9 µM
Cn1c(SCC(=O)NC2CCCC2)nnc1-c1ccc(S(=O)(=O)N2CCOCC2)cc1 > 76.9 µM
O=C(OCN1C(=O)c2ccccc2C1=O)c1ccc2c(=O)n3c(nc2c1)CCC3 > 76.9 µM
CCOc1ccccc1N/C=C/C(=O)C(C)(C)C > 76.9 µM
Cc1cc(NCCCN2CCOCC2)n2ncc(-c3ccccc3)c2n1
O=C(CSc1nc(-c2ccccc2)cc(C(F)(F)F)n1)NCCN1CCOCC1
CCOC(=O)C1CCCN(S(=O)(=O)c2ccc(Br)c(OC)c2)C1 (stereo not given) > 76.9 µM
CN1CC(=O)N(CC(=O)NCc2ccc(F)cc2)c2ccccc2C1=O > 76.9 µM
C=CCn1c(Cc2c[nH]c3ccccc23)n[nH]c1=S > 76.9 µM
CCc1ccc(NC(=O)CS(=O)CC(=O)NCC2OCCc3ccccc32)cc1 (stereo not given) > 76.9 µM
O=C(NC1CC2CCCC(C1)N2C(=O)NC1CCCCC1)c1ccc(F)cc1 (stereo not given) > 76.9 µM
CC1=C(C#N)C(c2ccc3ncccc3c2)C(C#N)=C(C)N1 > 76.9 µM
CCN(CC(=O)Nc1ccc(S(N)(=O)=O)cc1)S(=O)(=O)c1cc(C)ccc1OC > 76.9 µM
O=C(CCSc1nc2cc(Cl)ccc2o1)N1CCOCC1 > 76.9 µM
CCOC(=O)c1c(-c2cccs2)csc1NC(=O)CSc1ncn[nH]1 > 76.9 µM
COc1ccc(C(=O)Nc2cccc(C)c2)cc1S(=O)(=O)N1CCOCC1 > 76.9 µM
COc1cc(OC)cc(C(=O)N2CCN(c3ccccc3F)CC2)c1 > 76.9 µM
CC(=O)Nc1ccc(C(=O)CSc2nnc(Cn3nnc4ccccc43)n2C)cc1 > 76.9 µM
O=C(NCCc1ccccc1)C1CCN(S(=O)(=O)c2cccc3nonc23)CC1 > 76.9 µM
O=C(NC1CC1)c1scc2c1OCCO2 > 76.9 µM
c1ccc(C(Cc2nc(-c3ccncc3)no2)c2ccccc2)cc1 > 76.9 µM
O=C(c1ccccc1)N1CCN(CC2CC=CCC2)CC1 (stereo not given) > 76.9 µM
Cc1ccc(S(=O)(=O)N2CCN(C(=O)CN3C(=O)NC4(CCOc5ccccc54)C3=O)CC2)cc1 (stereo not given) > 76.9 µM
COc1cccc(C(=O)Nc2ncc3c(n2)CC(C)(C)CC3=O)c1 > 76.9 µM
Cc1c(C(=O)O)sc2ncnc(N3CCCCC3C)c12 (stereo not given) > 76.9 µM
CCOC(=O)c1c(C)nc(-c2ccccc2)nc1NC(=O)C(C)C > 76.9 µM
COc1cc(CSc2nnnn2-c2ccc(C)cc2)cc(OC)c1OC > 76.9 µM
CC(=O)NCCc1cc2ccc(C)cc2[nH]c1=O > 76.9 µM
CCOCC(=O)Nc1cc(-c2cn3cccnc3n2)ccc1C > 76.9 µM
CCOC(=O)COn1c(=O)c(=O)n(OC)c2ccccc21 > 76.9 µM
Cc1cc(C(F)(F)F)nn1CC(=O)NCc1ccccc1 > 76.9 µM
Cc1cc(C)n2nc(SCC(=O)Nc3c(C)nn(-c4ccccc4)c3C)nc2n1 > 76.9 µM
